Five molecules from publication PMC6305376 can be followed below.

Amino acid sequences for entries named in this document (tags omitted). A change or cut given only in a name is not applied to a line headed by its entry. Chains listed by the source or under a name are the forms on record and can include a tag or linker. Residues count along the entry.
UniProt Q61768: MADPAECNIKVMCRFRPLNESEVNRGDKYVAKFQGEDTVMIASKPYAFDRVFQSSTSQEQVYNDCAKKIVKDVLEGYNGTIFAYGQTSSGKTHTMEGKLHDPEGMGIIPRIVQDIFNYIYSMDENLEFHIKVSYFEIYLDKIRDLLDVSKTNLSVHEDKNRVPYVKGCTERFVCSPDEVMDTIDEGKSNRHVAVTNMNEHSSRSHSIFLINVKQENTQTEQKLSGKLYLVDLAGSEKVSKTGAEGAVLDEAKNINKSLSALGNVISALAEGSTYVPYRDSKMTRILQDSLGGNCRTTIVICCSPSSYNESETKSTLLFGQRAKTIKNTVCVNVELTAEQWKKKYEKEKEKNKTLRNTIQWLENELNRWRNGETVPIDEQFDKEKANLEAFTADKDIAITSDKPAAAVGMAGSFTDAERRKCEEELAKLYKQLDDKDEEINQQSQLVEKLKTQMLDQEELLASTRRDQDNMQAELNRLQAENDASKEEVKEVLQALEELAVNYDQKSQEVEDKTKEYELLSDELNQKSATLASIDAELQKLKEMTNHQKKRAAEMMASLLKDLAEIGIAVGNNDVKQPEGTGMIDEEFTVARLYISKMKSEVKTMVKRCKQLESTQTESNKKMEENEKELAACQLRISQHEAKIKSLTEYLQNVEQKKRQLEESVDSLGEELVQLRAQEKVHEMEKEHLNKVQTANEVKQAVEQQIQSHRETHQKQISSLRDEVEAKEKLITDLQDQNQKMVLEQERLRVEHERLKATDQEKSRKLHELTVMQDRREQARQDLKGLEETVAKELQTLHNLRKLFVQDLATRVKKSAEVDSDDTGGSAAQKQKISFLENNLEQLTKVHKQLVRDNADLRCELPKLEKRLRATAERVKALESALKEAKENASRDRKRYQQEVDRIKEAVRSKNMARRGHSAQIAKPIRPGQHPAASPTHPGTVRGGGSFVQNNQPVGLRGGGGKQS
GST-fused Kif5b tail (Kif5b^891–963): residues 891-963 of Q61768
UniProt P22892: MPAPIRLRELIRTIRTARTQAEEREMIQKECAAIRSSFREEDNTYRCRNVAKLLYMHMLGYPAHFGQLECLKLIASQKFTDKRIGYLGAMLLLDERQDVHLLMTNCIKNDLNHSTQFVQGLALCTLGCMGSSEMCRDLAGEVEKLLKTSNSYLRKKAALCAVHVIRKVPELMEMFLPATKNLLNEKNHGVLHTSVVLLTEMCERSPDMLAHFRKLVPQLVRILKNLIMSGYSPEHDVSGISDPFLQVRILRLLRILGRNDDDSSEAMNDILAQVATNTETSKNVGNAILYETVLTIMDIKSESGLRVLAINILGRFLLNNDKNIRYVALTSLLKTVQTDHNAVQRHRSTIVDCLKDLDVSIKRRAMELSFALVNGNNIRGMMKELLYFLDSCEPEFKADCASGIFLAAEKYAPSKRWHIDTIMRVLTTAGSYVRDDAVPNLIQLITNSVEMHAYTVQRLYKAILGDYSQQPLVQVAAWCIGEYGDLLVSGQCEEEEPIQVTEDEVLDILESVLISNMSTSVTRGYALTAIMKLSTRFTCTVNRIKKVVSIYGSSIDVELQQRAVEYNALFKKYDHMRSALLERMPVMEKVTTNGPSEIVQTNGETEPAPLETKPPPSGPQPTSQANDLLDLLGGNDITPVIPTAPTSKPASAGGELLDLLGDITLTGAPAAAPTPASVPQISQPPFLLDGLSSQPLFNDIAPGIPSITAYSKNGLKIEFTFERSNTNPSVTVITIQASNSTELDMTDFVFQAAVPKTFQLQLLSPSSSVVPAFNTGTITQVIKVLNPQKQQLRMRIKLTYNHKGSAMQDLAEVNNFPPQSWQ

These are yes or no findings as the source states them, for the method shown. Binding seen in cells or lysates may run through a third protein. Some entries that bind do so weakly or less than the wild type. For some assays here: Tags and fused reporters may be left off the sequences shown.

The target in experiment [1] is Kif5b (kinesin-1 heavy chain), endogenous in mouse cortex (mouse (endogenous in mouse cortex)) (UniProt Q61768). Put plainly: co-IP; Kif5b immunoprecipitated from mouse cortical extracts under 150 mM and 500 mM salt; lysis buffer 50 mM Tris pH 7.4, 150 mM NaCl, 2 mM EDTA, 1% Triton X-100; protein G-Agarose; immunoblot. (In general: Immunoblotting shows a protein as a band on a membrane.)

In experiment [2] the target is GST-fused Kif5b tail (Kif5b^891–963) (UniProt Q61768). The experiment can be described thus: pull-down; GST-fused Kif5b^891-963 immobilized on glutathione-Sepharose beads, incubated with bacterial extracts containing flag-tagged CHC fragments in lysis buffer (50 mM Tris pH 7.4, 150 mM NaCl, 2 mM EDTA, 1% Triton X-100); only the target purified.
The target in experiment [3] is clathrin heavy chain (CHC), endogenous in Neuro2a cells (mouse (endogenous in Neuro2a)) (UniProt Q68FD5). Put plainly: co-IP; competition in cells: Neuro2a cells pre-treated 1 h with 100 µM TAT-Kif5b^891-915 peptide at 37 °C, then co-immunoprecipitation of CHC with Kif5b; only the binder purified.

Take “γ-Adaptin (subunit of AP-1), endogenous in mouse cortex (from UniProt P22892 1-822)”: the binding result in experiment [1] is given as “binds”.

B1: Flag-tagged CHC^1280–1429 (N-terminus of the CHC proximal segment) (domain or fragment, UniProt Q68FD5 1280-1429)
chain: ADELEELINYYQDRGYFEELITMLEAALGLERAHMGMFTELAILYSKFKPQKMREHLELFWSRVNIPKVLRAAEQAHLWAELVFLYDKYEEYDNAIITMMNHPTDAWKEGQFKDIITKVANVELYYKAIQFYLEFKPLLLNDLLMVLSPR
As to B1, the binding entry in experiment [2] is on record as “binds”.

B2: dynamin I, endogenous in mouse cortex (protein, UniProt P39053 1-867)
chain: MGNRGMEDLIPLVNRLQDAFSAIGQNADLDLPQIAVVGGQSAGKSSVLENFVGRDFLPRGSGIVTRRPLVLQLVNSTTEYAEFLHCKGKKFTDFEEVRLEIEAETDRVTGTNKGISPVPINLRVYSPHVLNLTLVDLPGMTKVPVGDQPPDIEFQIRDMLMQFVTKENCLILAVSPANSDLANSDALKIAKEVDPQGQRTIGVITKLDLMDEGTDARDVLENKLLPLRRGYIGVVNRSQKDIDGKKDITAALAAERKFFLSHPSYRHLADRMGTPYLQKVLNQQLTNHIRDTLPGLRNKLQSQLLSIEKEVDEYKNFRPDDPARKTKALLQMVQQFAVDFEKRIEGSGDQIDTYELSGGARINRIFHERFPFELVKMEFDEKELRREISYAIKNIHGIRTGLFTPDMAFETIVKKQVKKIREPCLKCVDMVISELISTVRQCTKKLQQYPRLREEMERIVTTHIREREGRTKEQVMLLIDIELAYMNTNHEDFIGFANAQQRSNQMNKKKTSGNQDEILVIRKGWLTINNIGIMKGGSKEYWFVLTAENLSWYKDDEEKEKKYMLSVDNLKLRDVEKGFMSSKHIFALFNTEQRNVYKDYRQLELACETQEEVDSWKASFLRAGVYPERVGDKEKASETEENGSDSFMHSMDPQLERQVETIRNLVDSYMAIVNKTVRDLMPKTIMHLMINNTKEFIFSELLANLYSCGDQNTLMEESAEQAQRRDEMLRMYHALKEALSIIGDINTTTVSTPMPPPVDDSWLQVQSVPAGRRSPTSSPTPQRRAPAVPPARPGSRGPAPGPPPAGSALGGAPPVPSRPGASPDPFGPPPQVPSRPNRAPPGVPSLGAWRLNSPQGKHENRAGKARL
B2: the binding result in experiment [1] is listed as “no binding”.

As to GRKKRRQRRRPPQDRKRYQQEVDRIKEAVRSKNMARRG [TAT-Kif5b^891–915 peptide (cell-penetrating)], the binding entry in experiment [3] is given as “binds”.

B3: syntaxin-6, endogenous in mouse cortex (protein, UniProt Q9JKK1 1-255)
chain: MSMEDPFFVVKGEVQKAVNTAQGLFQRWTELLQGPSAATREEIDWTTNELRNNLRSIEWDLEDLDETISIVEANPRKFNLDATELSIRKAFITSTRQIVRDMKDQMSASSVQALAERKNRQALLGDSSSQSWNAGVADRYGRLDRELQLANSHFIEEQQAQQQLIVEQQDEQLELVSGSIGVLKNMSQRIGGELEEQAVMLDDFSHELESTQSRLDNVMKKLAKVSHMTSDRRQWCAIAILFAVLVVVLILFLVL
B3: the binding result in experiment [1] is listed as “no binding”.
